# Results from the supplement of paper PMC10126150.
# Values marked as one replicate rest on one cluster of the flow cell; about a third of the high ones do not repeat.
# Tested on: ATP
# Assay: switch fluorescence ratio, 500 uM ATP over buffer (Cy3 cluster intensity, sum of 5 cycles each) (fold (ratio)); higher = stronger signal-on switching upon ATP binding; sequences stand for … in TCGTCGGCAGCGTCAGATGTGTATAAGAGACAGTTTTTTTTTTTTTTTTTTTTTTTTT…TC
# Conditions: aptamer strand: ATP DNA aptamer (quencher-CACCTGGGGGAGTATTGCGGAGGAAGG + anchor), 100 nM annealed; ATP concentration: 500 uM; one replicate
# In short: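 Clusters with intensities outside 100-1000 RFU were excluded. The remaining Cy3-labelled switching-strand clusters on a modified Illumina MiSeq flow-cell had been annealed to 100 nM quencher-labelled ATP aptamer and imaged in selection buffer, then after 15 min with 500 uM ATP at 22 °C, for five cycles separated by NaOH stripping and re-annealing. The fluorescence ratio, averaged per switch-domain sequence, is each cluster's summed target-cycle Cy3 intensity over its summed buffer-cycle Cy3 intensity.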
# 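Also: ATP exposure 15 min at 22 °C before imaging.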
row,Sequence,switch fluorescence ratio
1,TCCAAAATAG,1.67
2,TCCAAAATG,1.01
3,TCCAAAGACC,1.05
4,TCCAAAGAT,1.02
5,TCCAACAGGT,2.06
6,TCCAACCTGT,1.04
7,TCCAACGAAG,1.03
8,TCCAAGGTGT,3.16
9,TCCAAGTGAG,1
10,TCCAATGTAC,2.79
11,TCCAATGTAG,1.1
12,TCCAATGTGC,1.35
13,TCCACAAATT,1.01
14,TCCACATGAT,0.996
15,TCCACGCACG,1.77
16,TCCACGCCGG,1.05
17,TCCACTACCT,1.34
18,TCCAGACCCC,1.1
19,TCCAGATTG,1.02
20,TCCAGCTGCG,0.991
21,TCCAGGTACG,1.14
22,TCCAGGTTTC,0.958
23,TCCAGTAGCA,1.3
24,TCCAGTTGGC,1.06
25,TCCATAGTGG,1.03

row,Sequence,switch fluorescence ratio
1,TCCATATCAA,1.01
2,TCCATCGTAC,1.74
3,TCCATCGTGG,1.01
4,TCCATCTACT,1.02
5,TCCATCTGAA,1.02
6,TCCATTGGTC,1.08
7,TCCATTTACA,1.03
8,TCCATTTCTA,0.971
9,TCCATTTGGT,0.984
10,TCCCACGATT,1.03
11,TCCCAGTTAC,1.83
12,TCCCATGAAG,1.01
13,TCCCCATACA,1.07
14,TCCCCATTGG,1.26
15,TCCCCCTAGA,1.09
16,TCCCGAAAAA,0.976
17,TCCCGCCATA,2.16
18,TCCCGGCCGT,0.97
19,TCCCGGCGAA,1.07
20,TCCCGGGGTC,1.31
21,TCCCGTTTGG,1
22,TCCCTGTAGA,1.04
23,TCCGAACCTG,1.12
24,TCCGAGAAGG,1.1
25,TCCGATCCCA,1.04

row,Sequence,switch fluorescence ratio
1,TCCGATCGTT,1.69
2,TCCGCATAAA,4.53
3,TCCGCCTCGA,2.62
4,TCCGCGCGTG,1.25
5,TCCGCGGTAT,2.94
6,TCCGGAACAG,1.29
7,TCCGGATAGT,1.1
8,TCCGGCGGAG,1.01
9,TCCGGGAACG,1.22
10,TCCGGTGAAT,1.04
11,TCCGGTGGGA,1.04
12,TCCGTGGATC,1.15
13,TCCGTTCAGC,1.33
14,TCCGTTCTAT,1.16
15,TCCGTTGAGA,0.993
16,TCCTAATGG,1.02
17,TCCTAATTAT,1.05
18,TCCTACCGGA,1.11
19,TCCTACTGAG,1.09
20,TCCTAGGCAC,2.32
21,TCCTAGTTTA,0.998
22,TCCTATGCAG,1.37
23,TCCTCACGTT,1.68
24,TCCTCGGTCA,2.04
25,TCCTGATCTT,0.993

row,Sequence,switch fluorescence ratio
1,TCCTGGGCG,1.07
2,TCCTGTCTCA,1.03
3,TCCTGTTACT,1
4,TCCTTAATAG,1.15
5,TCCTTCCGTT,1.25
6,TCCTTGCGGC,1.8
7,TCCTTGGGAC,1.01
8,TCCTTTTACG,1.03
9,TCCTTTTTC,1.05
10,TCGAAACTAT,3.28
11,TCGAAAGCGA,1.66
12,TCGAAGCCGA,1.05
13,TCGAATAGTT,1.03
14,TCGAATATCG,0.966
15,TCGAATTAGC,1.05
16,TCGACATGCT,1.06
17,TCGACCGCTT,0.981
18,TCGACCTGGA,1.09
19,TCGACGGAAA,1.17
20,TCGACGGTGG,1.02
21,TCGACTCGGG,0.99
22,TCGACTGCGC,1.33
23,TCGACTGGTG,1.12
24,TCGACTTAGT,0.994
25,TCGACTTGAT,0.987
